The shares of active, inactive and inconclusive entries below differ from those in the screen. Where the call is inconclusive, the potency comes from a doubtful curve fit. The source made the active and inactive calls. Calls come from the whole dose curve; as a rule, active = well fitted curve in the direction sought with a large enough effect; inconclusive = small, poorly fitted or top-dose-only effect, or another doubt; inactive = no such curve, though single readings can be large; an effect the other way counts as inactive or inconclusive.
Assays:
[1] = biological target: Rap guanine nucleotide exchange factor 3 (Homo sapiens) (UniProt O95398); assay: Confirmatory qHTS for antagonist of cAMP-regulated guanine nucleotide exchange factor 3 (EPAC1) (AID 1645880); conditions: EPAC1 Rap1B-BODIPY-GDP exchange, fluorescence; activity, negative = inhibition: at 115 µM (top of the series); note: nearly all actives have a fitted effect of over 55% in size;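 for activity, negative = inhibition: plate controls were DMSO only for no effect and full effect of the ATA control for full effect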
Sequence of UniProt O95398 (O95398 whole entry, looked up): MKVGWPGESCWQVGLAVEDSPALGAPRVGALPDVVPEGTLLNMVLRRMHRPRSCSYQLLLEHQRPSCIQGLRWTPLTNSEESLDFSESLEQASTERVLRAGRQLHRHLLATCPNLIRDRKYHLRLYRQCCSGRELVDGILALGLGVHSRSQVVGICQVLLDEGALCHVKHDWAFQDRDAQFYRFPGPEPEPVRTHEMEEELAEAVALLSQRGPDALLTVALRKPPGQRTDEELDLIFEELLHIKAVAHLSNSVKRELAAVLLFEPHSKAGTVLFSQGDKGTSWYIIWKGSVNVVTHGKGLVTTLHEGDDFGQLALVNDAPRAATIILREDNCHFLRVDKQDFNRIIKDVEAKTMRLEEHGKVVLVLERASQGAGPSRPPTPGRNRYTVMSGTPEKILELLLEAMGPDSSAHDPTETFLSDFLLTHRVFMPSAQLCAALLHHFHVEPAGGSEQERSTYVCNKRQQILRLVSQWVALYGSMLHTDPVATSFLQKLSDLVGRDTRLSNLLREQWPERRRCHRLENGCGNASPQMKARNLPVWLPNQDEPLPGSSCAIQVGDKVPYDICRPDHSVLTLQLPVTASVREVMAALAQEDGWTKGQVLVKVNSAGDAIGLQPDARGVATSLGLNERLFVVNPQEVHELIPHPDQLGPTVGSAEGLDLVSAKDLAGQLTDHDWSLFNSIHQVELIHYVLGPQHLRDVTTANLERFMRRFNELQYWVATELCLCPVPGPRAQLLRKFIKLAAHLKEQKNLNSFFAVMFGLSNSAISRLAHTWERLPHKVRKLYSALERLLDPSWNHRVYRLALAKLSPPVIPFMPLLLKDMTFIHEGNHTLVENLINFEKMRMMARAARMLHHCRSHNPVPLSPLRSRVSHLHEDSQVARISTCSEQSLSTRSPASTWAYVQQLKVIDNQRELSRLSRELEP
Method in brief: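 Released BODIPY-GDP fluoresces less than Rap1-bound BODIPY-GDP; the signal is followed at 480/540 nm at 5-min intervals over 30 min, after 5 min at room temperature. Reactions contain 100 nM EPAC1, 250 nM RAP1B-BODIPY-GDP and 50 uM GDP; results are normalized to ATA and DMSO.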

[2] = biological target: Rap guanine nucleotide exchange factor 3 (Homo sapiens) (UniProt O95398); assay: Confirmatory qHTS for agonist of cAMP-regulated guanine nucleotide exchange factor 3 (EPAC1) (AID 1645881); conditions: EPAC1 Rap1B BODIPY-GDP exchange fluorescence; activation: at 154 µM (top of the series), 100% = cAMP control response; note: nearly all actives have a fitted effect of over 75% in size;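 for activation: EPAC1 catalysed release of BODIPY-GDP from Rap1B seen as fluorescence loss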
[3] = biological target: Rap guanine nucleotide exchange factor 3 (Homo sapiens) (UniProt O95398); assay: Counterscreen qHTS for agonist of cAMP-regulated guanine nucleotide exchange factor 3 (EPAC1) (AID 1645889); conditions: EPAC1 Rap1B-BODIPY-GDP exchange, fluorescence; activation: at 154 µM (top of the series) unless noted; note: nearly all actives have a fitted effect of over 40% in size; for activation: % of control where 0% means no effect
Method in brief: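 Rap1B–BODIPY-GDP (250 nM) with 50 uM GDP; compounds pin-transferred to 9.74 nM–152 uM final (activator) or from 7.32 nM upwards (inhibitor). Fluorescence Ex/Em 480/540 nm read at 5 and 30 min, then after adding cAMP or buffer, at room temperature.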
Potency is the fitted concentration of half-maximal effect; tags give direction and shape of the fitted curve.

Row | Compound | Potency [1] | Potency [2] | Potency [3] | activation [3]
1 | COc1cc(NC2c3ncccc3C(=O)N2Cc2ccco2)cc(OC)c1 (stereo unspecified) | inconclusive: 47.8 µM [inhibitor, partial curve, poor fit] | inactive | inactive | –
2 | COc1ccc2c(c1)C(SCC(=O)NCCc1ccc(Cl)cc1)CC(C)(C)O2 (stereo unspecified) | inconclusive: 44.7 µM [inhibitor, partial curve, poor fit] | inconclusive: 50.1 µM [activator, partial curve, poor fit] | – | inconclusive: 76% [activator] [at 30.8 µM]
3 | CCCC(C(=O)Nc1ccc(C)c(S(=O)(=O)N2CCOCC2)c1)c1ccccc1 (stereo unspecified) | inactive | inactive | inconclusive: 0.398 µM [activator, full curve, poor fit] | –
4 | COc1ccc(OC)c(/C=C2\SC(=S)N(Cc3cccnc3)C2=O)c1 | inactive | inconclusive: 112 µM [activator, partial curve, poor fit] | inconclusive: 14.1 µM [activator, partial curve, poor fit] | –
5 | Cc1cn(S(=O)(=O)c2ccccc2[N+](=O)[O-])cn1 | inactive | inactive | – | inactive: -4.19% [at 30.8 µM]
6 | CC(=O)C1=C(O)C(=O)N(c2cccc(Br)c2)C1c1ccc(Br)cc1 (stereo unspecified) | active: 37.9 µM | inactive | inactive | –
7 | CCc1ccc(NC(=O)/C(C#N)=C/c2cc3ccc(C)cc3nc2N2CCOCC2)cc1 | inactive | inconclusive: 100 µM [activator, partial curve, poor fit] | inconclusive: 12.6 µM [activator, single point] | –
8 | O=C1CS(=O)(=O)N(Cc2cccc(F)c2)c2ccc(Br)cc21 | inconclusive: 84.9 µM [inhibitor, partial curve, poor fit] | inactive | inconclusive: 10 µM [activator, full curve] | –
9 | CCOC(=O)/C(C#N)=C/c1ccc(N2CCN(Cc3ccccc3)CC2)cc1 | inactive | inconclusive: 79.4 µM [activator, partial curve, poor fit] | inconclusive: 11.2 µM [activator, single point] | –
10 | COc1ccc(OCc2nc3ccccc3n2Cc2ccccc2Cl)cc1 | inactive | inactive | – | inconclusive: 42.2% [activator]
11 | Cc1cccn2c(=O)c(/C=C(\C#N)c3nc4ccccc4n3C)c(Oc3ccc(Br)cc3)nc12 | inactive | inconclusive: 126 µM [activator, single point] | active: 39.8 µM | –
12 | Cc1ccc(S(=O)(=O)/N=C2/NC(=O)/C(=C\c3cc(Br)cc(Br)c3O)S2)cc1 | active: 16.9 µM | inactive | inactive | –
13 | O=C(CSc1ncnc2[nH]ncc12)Nc1cccc(Oc2ccccc2)c1 | inconclusive: 17.8 µM [inhibitor, partial curve, poor fit] | inconclusive: 56.2 µM [activator, partial curve, poor fit] | inconclusive: 7.08 µM [activator, partial curve, poor fit] | –
14 | O=C(N/N=C/c1ccc(O)c(O)c1)c1ccc(CSc2cccc3cccnc23)cc1 | inconclusive: 7.94 µM [inhibitor, full curve] | inactive | inconclusive: 3.16 µM [activator, partial curve, poor fit] | –
15 | Cc1ccc(NC(=O)c2sc3nc(-c4cc5ccccc5oc4=O)[nH]c(=O)c3c2C)c(C)c1 | inactive | inconclusive: 158 µM [activator, single point] | inconclusive: 112 µM [activator, single point] | –
16 | COC(=O)[C@]12CCCCC=C1N(Cc1ccco1)C(=O)[C@H](CC(=O)NCc1cccs1)C2 | inconclusive: 60.1 µM [inhibitor, partial curve, poor fit] | inactive | inconclusive: 0.891 µM [activator, single point] | –
17 | Cn1c(=O)c(C#N)c(-c2ccc(F)cc2)c2cc(C(=O)c3cc(Cl)cc(Cl)c3O)cnc21 | inactive | inconclusive: 141 µM [activator, single point] | inconclusive: 31.6 µM [activator, partial curve, poor fit] | –
18 | Cc1ccc2oc(=O)c(/C=C(\O)c3ccccc3)nc2c1 | inactive | inconclusive: 89.1 µM [activator, partial curve, poor fit] | – | inactive: 12.5% [at 30.8 µM]
19 | COc1ccc(OCCC(=O)OCC(=O)Nc2ccc(S(=O)(=O)N3CCOCC3)cc2)cc1 | inconclusive: 3.16 µM [inhibitor, full curve, poor fit] | inactive | inconclusive: 14.1 µM [activator, single point] | –

Row | Compound | Potency [1] | Potency [2] | Potency [3] | activation [3]
20 | Cc1ccc2cccc(OC(=O)c3c(F)cccc3Cl)c2n1 | inactive | inconclusive: 79.4 µM [activator, partial curve, poor fit] | inconclusive: 39.8 µM [activator, partial curve, poor fit] | –
21 | CCc1ccccc1NC1c2ccccc2C(=O)N1Cc1ccco1 (stereo unspecified) | inconclusive: 35.5 µM [inhibitor, partial curve, poor fit] | inconclusive: 44.7 µM [activator, partial curve, poor fit] | inconclusive: 0.0079 µM [activator, full curve, poor fit] | –
22 | CCc1cc(-c2n[nH]c(C)c2-c2ccccc2Cl)c(O)cc1OC | inconclusive: 37.9 µM [inhibitor, partial curve] | inactive | inconclusive: 0.708 µM [activator, partial curve] | –
23 | Cc1ccc(C(=O)Nc2ccc(N3CCOCC3)c3nonc23)cc1[N+](=O)[O-] | active: 47.8 µM | inactive | inconclusive: 44.7 µM [activator, partial curve, poor fit] | –
24 | COc1ccc(C(=O)NCCn2cc(SCC(=O)NCCc3ccc(OC)c(OC)c3)c3ccccc32)cc1 | inconclusive: 95.3 µM [inhibitor, partial curve, poor fit] | inconclusive: 0.0089 µM [activator, full curve, poor fit] | inactive | –
25 | CCc1nc2ccc(C(=O)Nc3ccc(OC)c(OC)c3)cn2c1N(C)CCC(C)C | inconclusive: 50.1 µM [inhibitor, partial curve] | inactive | inconclusive: 0.02 µM [activator, full curve, poor fit] | –
26 | O=c1cc(Cl)c(-c2ccccc2)nn1Cc1ccc(Cl)cc1 | inconclusive: 67.5 µM [inhibitor, partial curve, poor fit] | inconclusive: 112 µM [activator, partial curve, poor fit] | inconclusive: 15.8 µM [activator, partial curve, poor fit] | –
27 | O=C(O)CC/C(=C/c1cccc(NC(=O)c2ccccc2Cl)c1)c1nc2ccccc2s1 | inconclusive: 84.9 µM [inhibitor, partial curve] | active: 100 µM | inconclusive: 63.1 µM [activator, partial curve, poor fit] | –
28 | Cn1cnnc1SCC(=O)Nc1sc2c(c1C(N)=O)CCC2 | inconclusive: 6.01 µM [inhibitor, full curve] | inactive | – | inconclusive: 30.7% [activator]
29 | COc1cccc2c1C(=O)c1c(O)c3c(c(O)c1C2=O)CC(O)(C(C)=O)CC3OC1CC(N(C)C)C(O)C(C)O1 (stereo unspecified) | inactive | inconclusive: 89.1 µM [activator, partial curve, poor fit] | inconclusive: 14.1 µM [activator, partial curve, poor fit] | –
30 | O=C1N(Cc2ccccc2Cl)c2ccccc2C1(O)c1c[nH]c2ccccc12 (stereo unspecified) | inconclusive: 84.9 µM [inhibitor, single point] | inconclusive: 56.2 µM [activator, partial curve, poor fit] | inconclusive: 10 µM [activator, single point] | –
31 | CCOc1cc(/C=C2\SC(=Nc3ccc(CC)cc3)NC2=O)ccc1OCC(=O)O | inconclusive: 33.8 µM [inhibitor, partial curve] | inconclusive: 89.1 µM [activator, partial curve] | inactive | –
32 | CCOC(=O)c1cc(-c2nnc(SCC(=O)Nc3ccc(F)cc3)o2)c(C)nc1C | inactive | inactive | inactive | –
33 | COC(=O)c1ccccc1C(=O)c1cccc2ccccc12 | inactive | inconclusive: 126 µM [activator, partial curve, poor fit] | – | inconclusive: 76.7% [activator]
34 | CCOc1cc(/C=N/NC(=O)CSc2nncn2C)ccc1OC(=O)c1ccc(Cl)cc1 | inconclusive: 50.1 µM [inhibitor, partial curve] | inactive | – | inactive: 9.31% [at 30.8 µM]
35 | COC(=O)CC(NC(=S)NC(=O)c1ccccc1)c1ccc(Br)cc1 (stereo unspecified) | inactive | inconclusive: 39.8 µM [activator, partial curve, poor fit] | inconclusive: 12.6 µM [activator, full curve, poor fit] | –
36 | Cc1ccc(Cl)c2sc(N3CCN(C(=O)c4ccco4)CC3)nc12 | inactive | inactive | inconclusive: 20 µM [activator, partial curve, poor fit] | –
37 | S=c1[nH]nc(-c2cc(-c3ccccc3)n[nH]2)n1/N=C/c1ccc(Cl)c(Cl)c1 | inconclusive: 50.1 µM [inhibitor, partial curve] | inconclusive: 79.4 µM [activator, partial curve] | – | inactive: 18.4% [at 30.8 µM]

Source: PubChem BioAssay (NCATS)
